# Test results from PubChem BioAssay AID1468 (National Center for Advancing Translational Sciences (NCATS), 2008).
# “And” between values parts separate entries of the source, which are not always exact repeats. Equal entries are not always repeated. About 1,100 (0.39%) of roughly 280,000 compounds were called active. Inconclusive results, whose numbers are uncertain, are shown with a selection of clear calls. The call rests on the fitted dose curve; in most records, active means well fitted inhibition curve with a large enough effect; inconclusive means small, poorly fitted or top-dose-only effect, or effect the other way; inactive means flat fitted curve, though single readings scatter. No potency is given beside an inconclusive call; the fits are too rough. More than one record can exist for a structure, and the calls need not agree.
# Molecular target: Microtubule-associated protein tau (Homo sapiens) (UniProt P10636)
# Assay: qHTS for Inhibitors of Tau Fibril Formation, Fluorescence Polarization; further: nearly all actives have a fitted effect of over 55% in size
# Settings: K18 P301L tau heparin fibrillization, Alexa594 FP, 6 h; series mostly up to 57.7 µM; activity, negative = inhibition: at the top concentration
# Summary of the method: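 Heparin (20 uM) drove fibril formation of recombinant tau K18 P301L, 15 uM unlabeled with 0.24 uM Alexa 594 label, for 6 hr at 37 C in 100 mM sodium acetate pH 7. Fluorescence polarization (555/632 nm) read 1 hr after 30 uM ThT.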
# On the % scale 0 is the no-effect control and ±100 the full control effect; potency means the concentration at half of the fitted maximal effect; tags describe the fitted curve by direction and shape.
# Chain of UniProt P10636 (P10636 whole entry, looked up): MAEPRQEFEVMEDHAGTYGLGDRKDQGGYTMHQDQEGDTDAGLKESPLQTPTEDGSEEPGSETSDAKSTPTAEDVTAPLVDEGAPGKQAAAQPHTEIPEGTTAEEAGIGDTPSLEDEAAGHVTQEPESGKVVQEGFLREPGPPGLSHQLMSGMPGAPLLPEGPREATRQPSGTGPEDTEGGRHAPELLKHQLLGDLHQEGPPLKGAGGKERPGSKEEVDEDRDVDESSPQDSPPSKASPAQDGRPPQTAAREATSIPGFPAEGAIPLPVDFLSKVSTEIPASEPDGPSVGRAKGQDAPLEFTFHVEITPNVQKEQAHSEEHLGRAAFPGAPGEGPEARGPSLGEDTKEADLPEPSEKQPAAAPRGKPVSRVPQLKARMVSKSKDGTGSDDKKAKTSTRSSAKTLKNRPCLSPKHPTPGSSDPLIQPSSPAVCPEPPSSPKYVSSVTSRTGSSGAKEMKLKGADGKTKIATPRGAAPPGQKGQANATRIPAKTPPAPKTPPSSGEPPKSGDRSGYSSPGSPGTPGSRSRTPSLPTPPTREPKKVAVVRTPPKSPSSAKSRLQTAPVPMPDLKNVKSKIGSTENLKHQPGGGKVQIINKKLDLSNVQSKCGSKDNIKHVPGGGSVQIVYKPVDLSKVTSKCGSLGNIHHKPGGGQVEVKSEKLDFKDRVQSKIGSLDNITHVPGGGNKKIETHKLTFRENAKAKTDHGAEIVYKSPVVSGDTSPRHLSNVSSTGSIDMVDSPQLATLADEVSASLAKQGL
Compound,Potency,"activity, negative = inhibition"
Oc1ccc(NCc2ccccc2OCc2ccccc2)cc1,inactive and active: 12.6 µM,
Cc1ccc2nc(-c3ccc(C)s3)c(Nc3ccc4c(c3)OCCO4)n2c1,,inactive: 3.96%
Cc1sc2nc(C)n(/N=C/c3ccc(O)cc3O)c(=O)c2c1C,"inconclusive [inhibitor, single point]",
COc1ccccc1-c1nn(CCC(=O)Nc2ccccc2)c2nc(C)cc(C)c12,,inactive: 0.795%
O=C(NCc1ccccc1Cl)c1ccc2c(c1)NC(=O)C(CS(=O)(=O)Cc1ccc(Cl)cc1)N2 (configuration not stated),"inconclusive [inhibitor, full curve]",
CCCCN(C(=O)Cc1cccs1)c1nnc(-c2cccnc2)s1,,inactive: 8.15%
COc1ccccc1C(=O)Nc1ccc(-c2cc(C(F)(F)F)nn2-c2ccccc2)cc1,"inconclusive [inhibitor, partial curve]",
CCOC(=O)c1c(C)[nH]c(C)c1S(=O)(=O)N1CCCC(C(=O)N2CCN(c3cccc(Cl)c3)CC2)C1 (configuration not stated),,inactive: 8.97%
CCOC(=O)C1=C(SCC)c2cc3c(n2C1=O)CCCC3,"inconclusive [inhibitor, single point]",
CCCCN(C)C(=O)CSc1nc(NCc2ccc(OC)cc2)c2ccccc2n1,"inconclusive [inhibitor, full curve]",
Cc1ccc2[nH]cc(C(c3ccccc3)c3ccc(Cl)s3)c2c1 (configuration not stated),"inconclusive [inhibitor, partial curve]",
CN(C)/C=C/C(=O)c1cccc(Cl)c1,"inconclusive [inhibitor, partial curve, poor fit]",
CCC(C(=O)NCCC(C)C)N(C(=O)Cn1nnc(-c2ccc(C)cc2)n1)c1cccc(O)c1 (configuration not stated),"inconclusive [inhibitor, single point]",
COc1ccc(Cl)cc1NC(=O)Cn1c(=O)n(Cc2ccc(F)cc2)c(=O)c2cccnc21,"inconclusive [inhibitor, partial curve]",
O=C(O)/C=C\C(=O)Nc1ccc(F)c(F)c1F,,inactive: 2.64%
Cc1ccccc1/C=C/C12NC(=O)CN1c1ccccc1C2(C)C (configuration not stated),"inconclusive [inhibitor, single point]",
Cc1cc(=O)n2[nH]c(-c3ccco3)nc2n1,,inactive: 0.24%
O=C(Nc1cc(C(F)(F)F)ccc1N1CCOCC1)C1Cc2ccccc2CN1C(=O)c1ccco1 (configuration not stated),"inconclusive [inhibitor, single point]",
CCCOc1ccc(C(=O)NNC(=S)NC(=O)c2cc(-c3ccccc3)nc3ccccc23)cc1,"inconclusive [activator, partial curve]",
COc1cc(OC)cc(C(=O)Nc2nc3ccc(S(C)(=O)=O)cc3s2)c1,"inconclusive [inhibitor, single point]",
COc1ccc([N+](=O)[O-])cc1NC(=O)COC(=O)/C=C/c1ccco1,"inconclusive [inhibitor, single point]",
COc1ccc(-c2onc(C)c2-c2ccc(C(=O)OC(C)C)o2)c(O)c1,"inconclusive [inhibitor, single point]",
Oc1ccccc1-c1nc(NCC2CCCO2)c2ccccc2n1 (configuration not stated),"inconclusive [inhibitor, partial curve, poor fit]",

Compound,Potency,"activity, negative = inhibition"
O=C(Nc1ccc2oc(-c3ccccc3)nc2c1)c1cc(-n2cnnc2)ccc1Cl,"inconclusive [inhibitor, single point]",
C[C@H](NC(=O)c1nc[nH]c1C(=O)N[C@@H](Cc1ccccc1)C(=O)OCc1ccccc1)c1ccccc1,"inconclusive [inhibitor, single point]",
Cn1c(SCC(=O)Nc2cccc(Br)c2)nnc1-c1cc2ccccc2o1,"inconclusive [inhibitor, partial curve]",
CC(C)CO/N=C1/C[C@@H](O)[C@@H](O)[C@@H]2[C@@H]3C(=O)N([C@@H](C)c4ccccc4)C(=O)[C@H]3CC[C@H]12,"inconclusive [inhibitor, full curve, poor fit]",
CCCCNc1nc(N)nc(-c2cc(Cl)ccc2O)n1,"inconclusive [inhibitor, single point]",
CCOc1ccccc1N(CC(=O)Nc1ccc(S(=O)(=O)N2CCOCC2)cc1)S(=O)(=O)c1ccccc1,"inconclusive [inhibitor, single point]",
Cc1ccccc1Nc1c([N+](=O)[O-])ccc2c1=NC1(CCCCC1)N=2,"inconclusive [activator, partial curve, poor fit]",
CCOC(=O)c1cnc(-n2nc(C)cc2C)nc1NC,"inconclusive [inhibitor, single point]",
Fc1cccc(NC(=S)NCCc2ccccc2)c1,"inconclusive [inhibitor, partial curve, poor fit]",
Fc1ccc(-c2cc(-c3ccccc3)c3c(n2)-c2ccccc2OC3)cc1,"inconclusive [inhibitor, partial curve, poor fit]",
COc1ccc(NC(=O)Nc2ccccc2OC)cc1,"inconclusive [activator, partial curve]",
CCOC(=O)c1c(S(=O)(=O)NCC(=O)Nc2ccc(C(C)=O)cc2)c(C)n(C)c1C,,inactive: 0.133%
CCOC(=O)C1=C(C)NC2=C(C(=O)OC2)C1c1ccccc1 (configuration not stated),,inactive: -9.49%
O=C1C(NS(=O)(=O)c2cccs2)=C(N2CCOCC2)C(=O)c2ccccc21,"inconclusive [inhibitor, partial curve]",
O=C(Cc1c(F)cccc1Cl)N1CCCC1,"inconclusive [activator, single point]",
COc1cc(NC(=O)CN2C(=O)COc3ccc(S(=O)(=O)NC4CCCC4)cc32)cc(OC)c1,"inconclusive [inhibitor, partial curve]",
CSc1nsc2nc(=O)c(/C=C3\C(C)=Nc4ccccc43)c(N)n12,,inactive: -2.64%
Cc1cc(C)cc(CC(Cc2nc3ccccc3[nH]2)c2nc3ccccc3[nH]2)c1 (configuration not stated),"inconclusive [inhibitor, single point]",
C=CCSc1n[nH]c(-c2ccc(OCCC)cc2)n1,"inconclusive [inhibitor, single point]",
Cc1[nH]c(=O)[nH]c(=O)c1/C=N/NC(=O)[C@H](C)NC(=O)OC(C)(C)C,,inactive: 0.208%
Cc1nn(-c2nc3ccccc3s2)c(C)c1Oc1ccccc1O,"inconclusive [inhibitor, partial curve]",
CC(=O)c1ccc(NC(=O)c2cc3sccc3n2Cc2ccc(Cl)cc2)cc1,active: 10 µM,
CCOCCCNC(=O)C(=O)Nc1c2c(nn1-c1ccccc1)CSC2,,inactive: -8.44%

Compound,Potency,"activity, negative = inhibition"
Cc1cccc(C(=O)NC(NCCc2ccccc2)C(Cl)(Cl)Cl)c1 (configuration not stated),"inconclusive [inhibitor, single point]",
CN1CCCCC1CCN1c2ccccc2Sc2ccc(S(C)=O)cc21 (configuration not stated),"inconclusive [inhibitor, single point]",
O=C(/C=C/c1cccs1)Nc1cccnc1,,inactive: -8.47%
CCOc1cc(/C=N/NC(=O)C(=O)Nc2cc(Cl)ccc2C)ccc1O,"inconclusive [inhibitor, single point]",
COc1ccc(N=C2SC(CC(=O)Nc3cccc(Cl)c3)C(=O)N2Cc2ccco2)cc1 (configuration not stated),"inconclusive [inhibitor, partial curve]",
Cc1cccc(NC(=O)C2CCCN(S(=O)(=O)c3ccc4c(c3)CCCC(=O)N4)C2)c1 (configuration not stated),,inactive: -9.84%
Cc1nn(C)c(C)c1/C=N/N=C1\CCC2C3CCc4cc(O)ccc4C3CCC12C (configuration not stated),"inconclusive [activator, partial curve, poor fit]",
CN(C)C(=O)CCN1CCOCC1,,inactive: -8.9%
Cc1ccc(C)c(Nc2c([N+](=O)[O-])cc(C(=O)N3CC(=O)Nc4ccccc43)cc2[N+](=O)[O-])c1,,inactive: 9.06%
Cc1ccc(CNS(=O)(=O)c2ccc3[nH]c4c(c3c2)CCCCC4)cc1,"inconclusive [inhibitor, partial curve]",
CC(C)c1ccc2c(c1)c(SC(C)(C)C)c(CC(C)(C)C(=O)O)n2Cc1ccc(Cl)cc1,"inconclusive [inhibitor, single point]",
Cc1cc(=O)c2cc(C(=O)Nc3ccc(F)cc3)ccc2[nH]1,,inactive: 0.607%
O=C1C=CC(=O)C2=C1C1c3ccccc3C2c2ccccc21,active: 35.5 µM,
COc1cccc(Nc2nc3c(S(=O)(=O)c4cc(C)ccc4C)nnn3c3ccsc23)c1,"inconclusive [inhibitor, partial curve]",
O=C(Oc1oc(-c2ccco2)nc1C=Nc1ccccc1)c1ccco1,"inconclusive [inhibitor, single point]",
CC(=O)Nc1c(C)nn(-c2ccccc2)c1N1CCC(C(=O)Nc2ccccc2C(F)(F)F)CC1,,inactive: -2.01%
CCN(CC)C(=O)c1c(NC(=O)c2ccccc2)sc(C)c1C,,inactive: 8.53%
Cc1c(-c2ccccc2)sc(Br)c1C(=O)N1CCOCC1,,inactive: 5.39%
COc1ccc(CNc2oc(/C=C/c3cc(OC)c(OC)c(OC)c3)nc2C#N)cc1,"inconclusive [activator, partial curve, poor fit]",
CC(C)NC(=S)N/N=C/c1c[nH]c2ccccc12,"inconclusive [activator, partial curve]",
CC1CCCCN1C(=O)CSc1nc2ccsc2c(=O)n1Cc1ccccn1 (configuration not stated),"inconclusive [inhibitor, full curve]",
